Results as given in article PMC4453211.
No constants are given. Whether binding was seen depends on the method and setting. In cells and extracts the contact can be indirect. Some binding calls cover weakened binding; strength is not graded here. For some of these results: Where a sequence is shown, tags or fusion partners need not be part of it.

T1: human 12-LOX, full-length cDNA, expressed in CHO cells (human) (UniProt P18054)
T1 sequence: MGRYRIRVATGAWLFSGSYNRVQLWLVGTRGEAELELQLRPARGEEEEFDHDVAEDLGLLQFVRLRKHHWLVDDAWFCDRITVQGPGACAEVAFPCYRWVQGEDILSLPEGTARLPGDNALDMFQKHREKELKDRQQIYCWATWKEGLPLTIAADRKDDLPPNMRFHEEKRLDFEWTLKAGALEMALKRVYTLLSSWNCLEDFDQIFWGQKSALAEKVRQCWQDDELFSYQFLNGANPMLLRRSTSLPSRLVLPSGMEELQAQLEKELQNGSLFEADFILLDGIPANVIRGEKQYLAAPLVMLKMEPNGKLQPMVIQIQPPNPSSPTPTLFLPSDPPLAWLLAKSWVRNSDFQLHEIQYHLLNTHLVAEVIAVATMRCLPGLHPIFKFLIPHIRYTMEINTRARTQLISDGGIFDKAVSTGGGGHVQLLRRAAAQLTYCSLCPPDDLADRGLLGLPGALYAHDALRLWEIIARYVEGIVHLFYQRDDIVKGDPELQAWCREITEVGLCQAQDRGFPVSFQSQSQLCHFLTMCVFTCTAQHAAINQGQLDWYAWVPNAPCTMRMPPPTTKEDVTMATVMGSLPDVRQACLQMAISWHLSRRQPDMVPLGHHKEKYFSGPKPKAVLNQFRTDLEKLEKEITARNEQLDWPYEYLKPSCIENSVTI


Experiments:
[1] = molecular target: T1, human 12-LOX, full-length cDNA, expressed in CHO cells (human); assay: co-IP; CHO transfectants with β4 constructs alone or with 12-LOX; lysis in 1 % Triton X-100, 0.5 % NP-40, 150 mM NaCl, 10 mM Tris pH 7.4; IP with anti-β4 mAbs (3E1, 439-9B, 450-11A) or anti-12-LOX antibody and protein G Sepharose at 4 °C; Western blot
[2] = molecular target: integrin β4 subunit (human (endogenous in A431)) (UniProt P16144); assay: co-IP; A431 cells and A431 12-LOX transfectants, serum-starved, stimulated with anti-β4 mAb 3E1 (5 μg/ml, 5-90 min) or grown on laminin; lysis in 1 % Triton X-100, 0.5 % NP-40, 150 mM NaCl, 10 mM Tris pH 7.4; IP with anti-12-LOX, anti-β1 or anti-β4 antibody and protein G Sepharose at 4 °C; Western blot

Row | Molecule | binding [1] | binding [2]
1 | full-length, wild-type human integrin β4 subunit (pRC-CMV-β4) (from UniProt P16144-2 28-1752) (receptor) | binds | 
2 | human platelet-type 12-lipoxygenase (enzyme, UniProt P18054 1-663) MGRYRIRVATGAWLFSGSYNRVQLWLVGTRGEAELELQLRPARGEEEEFDHDVAEDLGLLQFVRLRKHHWLVDDAWFCDRITVQGPGACAEVAFPCYRWVQGEDILSLPEGTARLPGDNALDMFQKHREKELKDRQQIYCWATWKEGLPLTIAADRKDDLPPNMRFHEEKRLDFEWTLKAGALEMALKRVYTLLSSWNCLEDFDQIFWGQKSALAEKVRQCWQDDELFSYQFLNGANPMLLRRSTSLPSRLVLPSGMEELQAQLEKELQNGSLFEADFILLDGIPANVIRGEKQYLAAPLVMLKMEPNGKLQPMVIQIQPPNPSSPTPTLFLPSDPPLAWLLAKSWVRNSDFQLHEIQYHLLNTHLVAEVIAVATMRCLPGLHPIFKFLIPHIRYTMEINTRARTQLISDGGIFDKAVSTGGGGHVQLLRRAAAQLTYCSLCPPDDLADRGLLGLPGALYAHDALRLWEIIARYVEGIVHLFYQRDDIVKGDPELQAWCREITEVGLCQAQDRGFPVSFQSQSQLCHFLTMCVFTCTAQHAAINQGQLDWYAWVPNAPCTMRMPPPTTKEDVTMATVMGSLPDVRQACLQMAISWHLSRRQPDMVPLGHHKEKYFSGPKPKAVLNQFRTDLEKLEKEITARNEQLDWPYEYLKPSCIENSVTI |  | binds

Next, values leading:

Row | binding [1] | binding [2] | Molecule
3 | binds |  | headless, truncated human integrin β4 (pCMV-β4 Δ70-660), extracellular sequences replaced by a c-myc epitope tag (domain or fragment, UniProt P16144-2 28-69; P16144-2 661-1752) NRCKKAPVKSCTECVRVDKDCAYCTDEMFRDRRCNTQAELLALKRAEEVVVRCSFRDEDDDCTYSYTMEGDGAPGPNSTVLVHKKKDCPPGSFWWLIPLLLLLLPLLALLLLLCWKYCACCKACLALLPCCNRGHMVGFKEDHYMLRENLMASDHLDTPMLRSGNLKGRDVVRWKVTNNMQRPGFATHAASINPTELVPYGLSLRLARLCTENLLKPDTRECAQLRQEVEENLNEVYRQISGVHKLQQTKFRQQPNAGKKQDHTIVDTVLMAPRSAKPALLKLTEKQVEQRAFHDLKVAPGYYTLTADQDARGMVEFQEGVELVDVRVPLFIRPEDDDEKQLLVEAIDVPAGTATLGRRLVNITIIKEQARDVVSFEQPEFSVSRGDQVARIPVIRRVLDGGKSQVSYRTQDGTAQGNRDYIPVEGELLFQPGEAWKELQVKLLELQEVDSLLRGRQVRRFHVQLSNPKFGAHLGQPHSTTIIIRDPDELDRSFTSQMLSSQPPPHGDLGAPQNPNAKAAGSRKIHFNWLPPSGKPMGYRVKYWIQGDSESEAHLLDSKVPSVELTNLYPYCDYEMKVCAYGAQGEGPYSSLVSCRTHQEVPSEPGRLAFNVVSSTVTQLSWAEPAETNGEITAYEVCYGLVNDDNRPIGPMKKVLVDNPKNRMLLIENLRESQPYRYTVKARNGAGWGPEREAIINLATQPKRPMSIPIIPDIPIVDAQSGEDYDSFLMYSDDVLRSPSGSQRPSVSDDTEHLVNGRMDFAFPGSTNSLHRMTTTSAAAYGTHLSPHVPHRVLSTSSTLTRDYNSLTRSEHSHSTTLPRDYSTLTSVSSHDSRLTAGVPDTPTRLVFSALGPTSLRVSWQEPRCERPLQGYSVEYQLLNGGELHRLNIPNPAQTSVVVEDLLPNHSYVFRVRAQSQEGWGREREGVITIESQVHPQSPLCPLPGSAFTLSTPSAPGPLVFTALSPDSLQLSWERPRRPNGDIVGYLVTCEMAQGGGPATAFRVDGDSPESRLTVPGLSENVPYKFKVQARTTEGFGPEREGIITIESQDGGPFPQLGSRAGLFQHPLQSEYSSITTTHTSATEPFLVDGLTLGAQHLEAGGSLTRHVTQEFVSRTLTTSGTLSTHMDQQFFQT
4 |  | binds | human 12-LOX, full-length cDNA, over-expressed in A431 cells (enzyme, UniProt P18054 1-663) MGRYRIRVATGAWLFSGSYNRVQLWLVGTRGEAELELQLRPARGEEEEFDHDVAEDLGLLQFVRLRKHHWLVDDAWFCDRITVQGPGACAEVAFPCYRWVQGEDILSLPEGTARLPGDNALDMFQKHREKELKDRQQIYCWATWKEGLPLTIAADRKDDLPPNMRFHEEKRLDFEWTLKAGALEMALKRVYTLLSSWNCLEDFDQIFWGQKSALAEKVRQCWQDDELFSYQFLNGANPMLLRRSTSLPSRLVLPSGMEELQAQLEKELQNGSLFEADFILLDGIPANVIRGEKQYLAAPLVMLKMEPNGKLQPMVIQIQPPNPSSPTPTLFLPSDPPLAWLLAKSWVRNSDFQLHEIQYHLLNTHLVAEVIAVATMRCLPGLHPIFKFLIPHIRYTMEINTRARTQLISDGGIFDKAVSTGGGGHVQLLRRAAAQLTYCSLCPPDDLADRGLLGLPGALYAHDALRLWEIIARYVEGIVHLFYQRDDIVKGDPELQAWCREITEVGLCQAQDRGFPVSFQSQSQLCHFLTMCVFTCTAQHAAINQGQLDWYAWVPNAPCTMRMPPPTTKEDVTMATVMGSLPDVRQACLQMAISWHLSRRQPDMVPLGHHKEKYFSGPKPKAVLNQFRTDLEKLEKEITARNEQLDWPYEYLKPSCIENSVTI
